# Measurements reported in PubChem BioAssay AID686978 (National Center for Advancing Translational Sciences (NCATS), 2013).
# In all, about 420,000 compounds went through this assay and about 64,000 (15%) were called active. Inconclusive results, whose numbers are uncertain, are shown with a selection of clear calls. The call rests on the fitted dose curve; in most records, active means well fitted inhibition curve with a large enough effect; inconclusive means small, poorly fitted or top-dose-only effect; inactive means flat fitted curve, though single readings scatter. No potency is given beside an inconclusive call; the fits are too rough. Some compounds were tested as several samples or in several runs, with calls that do not always agree.
# Assay: qHTS for Inhibitors of human tyrosyl-DNA phosphodiesterase 1 (TDP1): qHTS in cells in absence of CPT; further: nearly all actives have a fitted effect of over 55% in size
# Conditions: DT40 Tdp1-/- hTDP1 cells, no CPT, ATP luminescence, 48 h; activity change, negative = growth inhibition: at 46.2 µM (top of the series)
# How it was run: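 Chicken DT40 Tdp1-/- cells complemented with human TDP1, screened without camptothecin (DMSO vehicle only), 400 cells/well. Compounds pin-transferred, cells incubated at 37 °C for at least 48 hr. Growth read as ATP-dependent luminescence (CellTiter-Glo, 30 min at RT).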
# On the % scale 0 is the no-effect control and ±100 the full control effect; potency means the concentration at half of the fitted maximal effect; tags describe the fitted curve by direction and shape.
Compound,Potency,"activity change, negative = growth inhibition"
COc1cc(CNn2c(C)n[nH]c2=S)cc(Cl)c1OCC(=O)NC(C)(C)C,"inconclusive [inhibitor, partial curve]",–
NS(=O)(=O)c1ccc(CCNC(=O)COC(=O)/C=C/c2ccc(Cl)cc2)cc1,"inconclusive [inhibitor, single point]",–
Cc1ccc(S(=O)(=O)NC2(C(F)(F)F)NC(=O)N(Cc3ccccc3)C2=O)cc1 (stereo not drawn),inactive,–
CCc1ccc(C2c3c(n[nH]c3C)C(=O)N2c2ccc(C)cc2)cc1 (stereo not drawn),"inconclusive [inhibitor, single point]",–
CC(C)N1CC2(CC(c3ccccc3F)=NO2)CN1C(=O)c1ccc(C(C)(C)C)cc1 (stereo not drawn),active: 10.3 µM,–
COc1ccc(C2N(c3ccccc3)CCN2c2ccccc2)cc1O,inactive,–
CCOc1ccccc1NC(=O)C1CCN(C(=O)C2CC(=O)N(c3ccc(C)cc3)C2)CC1 (stereo not drawn),inactive,–
CC(C)CCNC(=O)CSc1nc2ccsc2c(=O)n1Cc1ccccc1Cl,"inconclusive [inhibitor, single point]",–
CC(=O)C(Cc1ccccc1)NC(=O)CN(C)Cc1ccccc1Cl (stereo not drawn),"inconclusive [inhibitor, single point]",–
COc1cccc(N2C(=O)CC(N3CCN(CCN=CC4=C(O)CC(C)(C)CC4=O)CC3)C2=O)c1 (stereo not drawn),inactive,–
Cc1ccc(S(=O)(=O)n2cc(-c3ccccc3)c3ccccc32)cc1,active: 2.31 µM,–
CC(=O)c1cccc(NC(=O)c2ccc(OC3CSC3)cc2)c1,"inconclusive [inhibitor, partial curve]",–
COc1ccc(NC(=O)C(Cc2ccccc2)n2cccc2)c(OC)c1 (stereo not drawn),active: 18.4 µM,–
Cc1cc(C(=O)CN2C(=O)C(=O)N(Cc3ccco3)C2=O)c(C)n1CCc1ccc(F)cc1,"inconclusive [inhibitor, single point]",–
CCc1nc2ccc(C(=O)Nc3cccc(OC)c3)cn2c1N(C)CCCc1ccccc1,"inconclusive [inhibitor, single point]",–
O=S(=O)(Nc1nc2n(n1)C(c1ccccc1)C=C(c1ccc(Cl)cc1)N2)c1ccccc1 (stereo not drawn),inactive,–
NC(=O)c1ccc2nc(NC(=O)c3ccc(N)cc3)sc2c1,"inconclusive [inhibitor, single point]",–
COc1ccc(N2C(=O)CC(N3CCC(O)(c4ccc(Br)cc4)CC3)C2=O)cc1 (stereo not drawn),"inconclusive [inhibitor, single point]",–
CC1CCN(c2ccc([N+](=O)[O-])cc2C(=O)NCC2CCCO2)CC1 (stereo not drawn),inactive,–
CCOC(=O)CSc1nc(C)c(Oc2ccc(Cl)cc2Cl)c(=O)[nH]1,–,inconclusive: -33.8% [inhibitor]
O=C(NCCCn1ccnc1)C(=O)NCC(c1cccnc1)N1CCN(c2ccccc2)CC1 (stereo not drawn),inactive,–
COc1ccc(C)cc1NC(=O)CN(C)C1CCCCC1,"inconclusive [inhibitor, single point]",–
COCCn1nnnc1C(c1cccc(C#N)c1)N1CCCCCC1 (stereo not drawn),–,inconclusive: -30.4% [inhibitor]
CCCCNC(=O)C1(C)CCCCN1C(=O)c1oc2ccccc2c1C (stereo not drawn),active: 10.3 µM,–
COc1cc(OC)c(N(C)S(=O)(=O)c2cccc(C(=O)Nc3nc(C)cs3)c2)cc1Cl,"inconclusive [inhibitor, single point]",–

Compound,Potency,"activity change, negative = growth inhibition"
O=C(NCC1COc2ccccc2O1)C1CCCN(S(=O)(=O)c2cccc3cccnc23)C1 (stereo not drawn),"inconclusive [inhibitor, single point]",–
Cc1ccc(-c2nnc(Nc3ccc4c(c3)nc(C)n4C)c3ccccc23)cc1,"inconclusive [inhibitor, single point]",–
CCCOC(=O)/C(C(N)=NCc1ccccc1)=C(\O)OCCC,"inconclusive [inhibitor, single point]",–
CS(=O)(=O)N1CC(C(=O)NC2CC2)Oc2ccc(Cl)cc21 (stereo not drawn),inactive,–
COc1ccccc1N1CCN(C(=O)CSc2nc(-c3ccc(C(C)C)cc3)no2)CC1,active: 6.51 µM,–
CCCN(CC(=O)Nc1ccccc1C)C(=O)/C=C/c1ccc(S(=O)(=O)N2CCCCCC2)cc1,active: 20.6 µM,–
Cc1ccc(Cc2c(-c3ccc(C#N)cc3)nc3c4ccccc4ccn23)cc1,"inconclusive [inhibitor, single point]",–
COc1ccc(S(=O)(=O)N(C)c2ccc(C(=O)N3CCC(C(N)=O)CC3)cc2)cc1,–,inconclusive: -35.6% [inhibitor]
CSc1ccc(S(=O)(=O)NCC(=O)OCC(=O)N(C)C2CCCCC2)cc1[N+](=O)[O-],inactive,–
COc1ccccc1-c1c(C(F)(F)F)oc2cc(OCC(=O)Nc3ccccc3C(F)(F)F)ccc2c1=O,"inconclusive [inhibitor, single point]",–
COc1ccc(Nc2nnc(-c3ccc(C)c(S(=O)(=O)N4CCOCC4)c3)c3ccccc23)cc1,active: 7.31 µM,–
O=C(NCc1ccc(Cl)cc1)C1CCCN(c2ncnc3onc(-c4ccc(F)cc4)c23)C1 (stereo not drawn),active: 23.1 µM,–
CC(=O)c1cccc(OCCCOc2cccc3cccnc23)c1,active: 16.4 µM,–
CC1(C(=O)Nc2ccc(Cl)c(Cl)c2)CCN1CCc1ccccc1 (stereo not drawn),"inconclusive [inhibitor, single point]",–
CC(=O)c1cccc(Nc2nc3ccccc3n3cnnc23)c1,"inconclusive [inhibitor, partial curve, poor fit]",–
Cc1cc(C(F)(F)F)n2ncc(C(=O)O)c2n1,inactive,–
CCOc1cc(C2c3c(oc4ccc(F)cc4c3=O)C(=O)N2Cc2ccc(C)cc2)ccc1O (stereo not drawn),"inconclusive [inhibitor, full curve]",–
CCNc1nc(NCC)nc(N/N=C(\C)c2ccc(OC)cc2)n1,"inconclusive [inhibitor, single point]",–
CC1CCCC(NC(=O)C2N(CCCN3CCCC3)C(=O)C3C(C(=O)Nc4cccc(Cl)c4)C4C=CC32O4)C1C (stereo not drawn),"inconclusive [inhibitor, single point]",–
COC(=O)c1ccccc1NC(=O)Nc1cccc(C)n1,inactive,–
O=C(COc1ccccc1F)Nc1nnc(S(=O)(=O)N2CCCCCC2)s1,inactive,–
N#Cc1cnn(CC2CCCCC2)c1N,inactive,–
CCN(CC)c1ccc(NC(=S)NC(=O)Cc2ccccc2)cc1,"inconclusive [inhibitor, partial curve]",–
COc1ccc(OCC(O)CN2CCN(c3ccccc3)CC2)cc1 (stereo not drawn),inactive,–
OC(CCN1CCCCC1)(c1ccccc1)c1ccccc1,"inconclusive [inhibitor, single point]",–

Compound,Potency,"activity change, negative = growth inhibition"
COc1ccc(/C=N/NC(=O)Cn2nc([N+](=O)[O-])cc2C)c(OC)c1OC,inactive,–
Cc1c(Cc2ccccc2)c(NCCCO)n2c(nc3ccccc32)c1C#N,active: 16.4 µM,–
OC(CNC1CCCCC1)COCCOc1ccc(Br)cc1 (stereo not drawn),active: 23.1 µM,–
COc1ccc(N(CC(=O)Nc2ccc(OC)cc2OC)S(=O)(=O)c2ccccc2)cc1,active: 18.4 µM,–
CCOC(=O)c1c(C)c(C(=O)NCc2cccs2)c(C)n1CC,inactive,–
CC1(C(=O)Nc2cccc(C(F)(F)F)c2)Cc2c(-c3ccc4c(c3)OCO4)ccnc2O1 (stereo not drawn),active: 18.4 µM,–
Cc1ccccc1Cc1c(C)nc2nc(SCC(=O)NC(C)c3ccccc3)nn2c1C (stereo not drawn),"inconclusive [inhibitor, single point]",–
CCOC(=O)c1c(C)oc2nc(C)nc(NCCCN3CCN(c4cccc(C)c4)C(C)C3)c12 (stereo not drawn),"inconclusive [inhibitor, partial curve]",–
COC(=O)C1=C(C(=O)c2ccccc2)C(c2ccc(OC)c(OC)c2)Nc2nnnn21 (stereo not drawn),inactive,–
Cc1ccc2[nH]c(-c3ccccc3)c(CN3CCN(C)CC3)c(=O)c2c1,inactive,–
CCC1CN(C(=O)Nc2cccc3c2CCCC3)c2cc(C)ccc2O1 (stereo not drawn),"inconclusive [inhibitor, single point]",–
CC(=O)N1c2ccc(S(=O)(=O)N3CCC(C(=O)N4CCN(c5ccc(Cl)cc5)CC4)CC3)cc2CC1C (stereo not drawn),active: 5.17 µM,–
COC(=O)c1ccc(NC(=O)CSc2nnc(-c3cccnc3)o2)cc1,inactive,–
COc1ccc([C@@H]2CC=C(C(=O)O)CN2S(=O)(=O)c2ccc(Cl)cc2)cc1,inactive,–
CC(=O)C1=C(O)C(=O)N(c2ccccn2)C1c1ccc(Cl)cc1 (stereo not drawn),"inconclusive [inhibitor, partial curve]",–
O=C(NCCCN1CCN(c2ccccc2)CC1)c1cc2c(s1)-c1ccccc1OC2,active: 23.1 µM,–
COc1ccc([C@H]2C[C@H](n3cc(-c4ccc(F)cc4)nn3)[C@@H](O)CN2Cc2cccs2)cc1,inactive,–
CN(CC(=O)NCCN1CCN(Cc2ccccc2)CC1)S(=O)(=O)c1cccc2nsnc12,"inconclusive [inhibitor, partial curve, poor fit]",–
COC(=O)c1ccc(OC(=O)c2ccncc2)cc1O,inactive,–
CCC(C)Sc1nc2ccccc2c(=O)[nH]1 (stereo not drawn),"inconclusive [inhibitor, single point]",–
COc1cccc(-c2cnc3c(NC(C)=O)cc(-c4cccc(NC(C)=O)c4)cn23)c1,"inconclusive [inhibitor, single point]",–
Cn1cc([N+](=O)[O-])c(C(=O)Nc2ccc3c(c2)OCCO3)n1,inactive,–
COc1ccc(NC(=S)NCc2cccs2)cc1OC,"inconclusive [inhibitor, single point]",–
